The full ranking holds about 2,700 sequences; the median of “arbitrary fluorescence units” is about 4,100, and the highest 2% start at about 54,000. The list shows a part of the results.

The target in the assay is T1, ETS1 (UniProt P14921).
T1 sequence: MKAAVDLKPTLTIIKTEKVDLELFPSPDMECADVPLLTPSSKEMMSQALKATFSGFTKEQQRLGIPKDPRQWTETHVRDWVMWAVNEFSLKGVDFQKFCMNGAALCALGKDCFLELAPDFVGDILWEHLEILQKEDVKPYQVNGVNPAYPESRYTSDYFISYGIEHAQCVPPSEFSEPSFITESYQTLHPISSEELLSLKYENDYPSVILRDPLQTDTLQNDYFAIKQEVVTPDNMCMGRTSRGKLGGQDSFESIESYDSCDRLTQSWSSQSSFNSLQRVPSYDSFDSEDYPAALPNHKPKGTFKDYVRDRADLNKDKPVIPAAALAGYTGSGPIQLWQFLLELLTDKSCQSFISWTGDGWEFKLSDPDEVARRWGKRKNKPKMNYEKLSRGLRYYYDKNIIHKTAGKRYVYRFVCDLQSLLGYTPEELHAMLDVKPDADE
Briefly: ETS1 binding intensity (PBM fluorescence) (arbitrary fluorescence units); higher = stronger binding. As to conditions: ETS1 concentration 10 nM. The method, then: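 gcPBM on wild-type 36-bp genomic probes with two neighbouring ETS1 sites (4-24 bp apart). Recombinant human ETS1 (10 nM) was detected with anti-ETS1 antibody fluorescence. Values are medians over 3 replicate spots. The probes sit in constant array flanks that are not printed.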
Regarding AGTACACGGAAGCCGAGGACAAGAGCATCCGGCTCG, the ETS1 binding intensity is 1780. On to GACAGGAAGTTTGTGAAGCTGGCAGGGCTTCCGTCC, for which the ETS1 binding intensity was determined as 6920. In the case of CAGCATATCCGCTACAACCCGCTGCAGGATGAGTGG it was 18900.

As for TGACCTACTTCCTCTTTCTGGTGGCTTCCTGCTAAA, the ETS1 binding intensity was 20100. For ACACTGGGCGGAAAAGCCCCGGTTTCCTGTCCCCCG the value was 7870; for TACATTTCCCAGGAGCCTCGGCGCGCACTTCCGCTT, 2710. The sequence GGCAGCAGTGGCATCCTGACCGGAAGTGCCTGCAGT gave an ETS1 binding intensity of 14300. In the case of AATACCGGAACATTTACACACACACATTTCCCAGCT it was 309. In turn, AGGTCGGAAGTCGCGGCTGTGGCGAAGCGGAATGCA registered an ETS1 binding intensity of 1120. As to CGCCCTCCTCTTCCGGGGTGGGGGAAGTGCGCCTCG, the ETS1 binding intensity is 7880. Sequence GGACTTCCCAACTAGACAGACCAAATGAGGAAGTTG yielded an ETS1 binding intensity of 880. For AGTCAGGAAGTAGGCTTTGCAGTCCATTTCCTGGGG the value was 4550. On to GCAGGAGGGAGGAAGAAAGGGAGGAAGACAGCGTGC, for which the ETS1 binding intensity came out at 233. AGCCCAAGCGCGGAAGAGGGCGGAAGGAGAACCCCT registered an ETS1 binding intensity of 240.

In turn, GCGCGAGCGACCAGGAAGCAGGAAACCCGGGCAAGC came in with an ETS1 binding intensity of 917. GGACGGAGCTTCCGGCTCGAGGCGGAAGTGCTCGCG: the ETS1 binding intensity worked out at 30800. Sequence GCCACCAAGTGCCGGAAGCGGAAGCTGGAGCGCATC had an ETS1 binding intensity of 8050. For AATGAGAAAATCGGAAACCCAGGAAGCTGCCCCAAT the value was 228; for TCCTCCGCTGACGGGAAGCAGGAAGTGGCGGCGGGC, 4820; for TGTATTTTCAGGATGTGGCAAGCGGATGTGGCTCAA, 2810. For CGGCTTCCTGACTTGCCCCACTCCCTCCTTCCGCCG the value was 13100; for GTACAAGACATCCTGTTTTACCACATCCTTGCCAAC, 17600; for CAGCGCGGCTTCCGCCGGGAGCCCGGAACCGAGCCC, 7120. For GGAGAGAGGCAGGAAGTCGACAGGAAGATGTACCTA the value was 8700. ACAGACGGAACTGGCGCTCCCAAGAACTTCCGCTCG came in with an ETS1 binding intensity of 2840. For TTTGTCTAGTCATTTCCTCAGGAAACCCTTATGAGT the value was 990.

Consider GTTAATTATTTCCTGCTCTCCAGGGAAGTGTTATTC, for which the ETS1 binding intensity was 19200. TCGTCCGCGTATCGGAACAGGAAGGAAGTCTTGCCC displayed an ETS1 binding intensity of 574.

For AAGGAAGAAGAGGAAGCAGAGCTTCCTTTACGGCGG, the ETS1 binding intensity worked out at 795. In the case of GGTTGGTGATTGGCAGGATCCTGGTATCCGCTAACA, the ETS1 binding intensity is 278. In the case of TTGCTGATACTTCCTGTGGAGGGGATGTGGGAGTGG it was 14700; in that of GGCAACCAGGAAGGGACAGCCGGGCATCCGCTGGGC, 867. Consider CATTCTTCCTGCAGACGCTTCTACACCAGGAAGGCA, for which the ETS1 binding intensity was found to be 6440. AGAGGTTCCGGACCGGCCTCAAGTCACTTCCGGGGC showed an ETS1 binding intensity of 8380. In the case of TTGCTATACGGAAGCACAGCTCACTTCCTGCTGGTT it was 3560. Sequence CTCCACCCCTGGAGGAAACAGGATGCCTTGGGACTT gave an ETS1 binding intensity of 310. CGCCTTCCGCAGGCTCGGCTGTCTCCACGGAAACCT came in with an ETS1 binding intensity of 3960. For AACAGGAAGTATTACATGAAGGAGAACAGGAAGTAA the value was 4850. For GCTGAACCCACATCCCTAGCACTTCCCTTTTGTGTC the value was 666. For CGGGCCCGGGGCGGAAAGCAGGAAGTCGATCCCGCG the value was 2040.

ACGTCACTTCCGGCGCCGGGGCTCACTTCCTGGTGC yielded an ETS1 binding intensity of 87500. For TCCCCGGGTTTTCCTGCTCTCCGGGAAGCCGCGAGG the value was 1420; for GCAAAGGCCTAGCAGGAAGGAAGCGAGCCTGGGGCC, 355. Regarding GGTCGCATCCGGGGCGCCGCGGGACACTTCCGGTGA, the ETS1 binding intensity turned out to be 26100.

Regarding TACCTAAGTCTTCCGTGTGCACTTCCTCCTGCTTGA, the ETS1 binding intensity stood at 1210. For CCCAACTTCCTCCAGCCCAGCTGGGCTTCCTTTGTT the value was 8910. For GGGCAGGAAGTCTGCAGGGCAAGCTGCAGGATGTCA the value was 5270; for GGTAGAAGTCTCAGGATGCTTCCTGCAGAATGATGG, 785. In the case of GGCACGTGGGCAGGAAGTTCTTCCTGGCGTCTGCCC it was 7300; in that of GAATTTCCTGCTGTTCAAGGAACGAGACATCCTCCA, 40900; in that of GTGAGAGGAAGTCGGGCCGCGAAAGCTTCCTGAGGA, 2620.

In the case of TGGTGCCCCACCGGAAGGCCGGATGTGTTCCTATCA, the ETS1 binding intensity is 7070.

Regarding ACAACTTCCTGTTACACAAGACAGGTATTTCCTCAT, the ETS1 binding intensity was 59800. In the case of TGGCGGAGGCGCCGGAAGTTTTCCGGCTTTCTGCTG it was 4500; in that of ACTAGCTGCTACCGGAACCGGAAGCGGCTGCTCCAG, 9620. As for ATCCTCTGCACAGGAAGTATTTCCTCTTTACTGAGG, the ETS1 binding intensity was 8000.

Take CAGGCCGGCTTCCTGGGACGCCTCTTCCTGGCCACC: the ETS1 binding intensity amounted to 4380. In the case of GCGCGTTTCCCGCCTGAGGCGGTTACGGAAACGCGG it was 5790; in that of TGTTGCGACTGGCATCCGCATCCGGCAGATGTAGAT, 5600. For CGGCTCGAGCCCCGGATGAGGAAGTGGTGCGGCCAC the value was 564.

AGACACTGAATCAGGATGTTTCCTGGAGTGCAGGGA displayed an ETS1 binding intensity of 556. As to GAGCTGGCAGGAACCAGCCGAACAGGAAGCGGGCGC, the ETS1 binding intensity amounted to 859.
